# Measured values from publication PMC4336329 (PLoS ONE, 2015).
# Among all 310,000 compounds or so, about 2,200 (0.71%) showed an effect of 50% or more. The effect is printed as a negative number. Some of the results follow.
# Biological target: human ether-à-go-go-related gene (hERG) potassium channel (human, UniProt Q12809)
# Test: primary screen, population patch clamp on CHO cells stably expressing hERG
# human ether-à-go-go-related gene (hERG) potassium channel, sequence (Q12809 whole entry, looked up): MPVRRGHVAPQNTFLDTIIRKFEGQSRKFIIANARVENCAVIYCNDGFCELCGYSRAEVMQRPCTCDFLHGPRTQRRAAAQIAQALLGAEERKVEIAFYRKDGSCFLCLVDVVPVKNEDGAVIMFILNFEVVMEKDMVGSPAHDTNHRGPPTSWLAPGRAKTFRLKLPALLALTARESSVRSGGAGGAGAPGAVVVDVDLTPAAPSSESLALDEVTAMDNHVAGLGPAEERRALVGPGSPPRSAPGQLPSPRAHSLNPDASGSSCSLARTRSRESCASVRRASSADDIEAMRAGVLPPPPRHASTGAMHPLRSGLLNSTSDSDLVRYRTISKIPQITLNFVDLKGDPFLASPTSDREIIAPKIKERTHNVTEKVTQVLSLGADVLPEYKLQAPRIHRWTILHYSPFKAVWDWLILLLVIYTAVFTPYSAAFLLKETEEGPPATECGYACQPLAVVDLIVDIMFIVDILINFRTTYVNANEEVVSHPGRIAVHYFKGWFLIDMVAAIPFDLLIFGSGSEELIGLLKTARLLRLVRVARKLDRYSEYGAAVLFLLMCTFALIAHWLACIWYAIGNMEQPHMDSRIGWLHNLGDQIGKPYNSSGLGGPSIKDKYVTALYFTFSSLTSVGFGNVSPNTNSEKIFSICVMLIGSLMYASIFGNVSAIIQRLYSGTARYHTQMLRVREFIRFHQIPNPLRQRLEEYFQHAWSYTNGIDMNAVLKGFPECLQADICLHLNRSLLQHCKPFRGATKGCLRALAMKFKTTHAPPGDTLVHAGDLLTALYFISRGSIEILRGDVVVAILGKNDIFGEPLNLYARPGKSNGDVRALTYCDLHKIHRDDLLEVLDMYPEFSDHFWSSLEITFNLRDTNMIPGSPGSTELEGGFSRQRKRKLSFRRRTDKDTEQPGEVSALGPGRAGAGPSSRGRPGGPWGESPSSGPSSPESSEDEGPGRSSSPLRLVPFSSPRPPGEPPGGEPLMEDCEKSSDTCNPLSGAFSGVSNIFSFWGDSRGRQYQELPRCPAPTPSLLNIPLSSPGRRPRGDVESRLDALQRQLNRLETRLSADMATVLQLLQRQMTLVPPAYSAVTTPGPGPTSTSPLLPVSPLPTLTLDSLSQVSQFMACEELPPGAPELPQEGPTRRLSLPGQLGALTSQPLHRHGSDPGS
row,SMILES,"hERG current change (%, negative = inhibition) at 1uM [%]"
1,CC(C)Cc1nn2c(=O)cc(CSCC(=O)Nc3ccccc3F)nc2s1,4.99
2,CCC(=O)Nc1nc(-c2ccccc2)nc(SC)c1C(C)=O,8.72
3,COc1ccc(S(=O)(=O)NCC2CCCN(Cc3ccc(C)o3)C2)cc1 (centres unmarked),5.15
4,O=C(Nc1ccccc1)O/N=C/c1ccc(F)cc1,6.79
5,Cn1cc2cccc([N+](=O)[O-])c2n1,7.83
6,O=C(NC1=NCCS1)C1CC(=O)N(c2ccccc2)C1 (centres unmarked),4.6
7,COc1ccc(S(=O)(=O)N2CCN(c3ncccn3)CC2)cc1[N+](=O)[O-],-0.738
8,COC(=O)C1=C(C)N(c2ccc(C)c(C)c2)/C(=C/c2cccs2)C1=O,2.06
9,Cc1cc(N2CCOCC2)n2cc(-c3ccccc3)nc2n1,-14.6
10,COc1ccccc1C(=O)NCCC(=O)N1CCN(c2cccc(C(F)(F)F)c2)CC1,2.48
11,Cc1ccc(CCNC(=O)CCNS(=O)(=O)c2ccc3c(c2)c(=O)n(C)c(=O)n3C)cc1,16.5
12,CCOC(=O)c1nc(C)sc1-c1ccnn1S(=O)(=O)c1ccc(C)cc1,11.4
13,CCOc1ccc(/C=N/NC(=S)NC2CC3CCC2C3)cc1 (centres unmarked),2.26
14,CC(=O)c1ccc(-n2cc(C#N)c(=O)[nH]c2=O)cc1,6.46
15,O=[N+]([O-])c1cccc(C2N3CCCN23)c1 (centres unmarked),12.1
16,CC(C)(C)NC(=O)c1sccc1C(=O)O,8.71
17,CCCS(=O)(=O)N1CCCC(C(=O)NCCCN(C)c2ccccc2)C1 (centres unmarked),5.24
18,Cc1cccc(-n2nc3c(c2NC(=O)c2ccco2)CS(=O)C3)c1C (centres unmarked),7.55
19,CCc1nc(SCc2ccc(F)cc2)[nH]c(=O)c1C#N,12.7
20,COc1ccc(C(=O)NC(=S)Nc2ccccc2N2CCOCC2)cc1[N+](=O)[O-],13.4
21,Cc1cc(C(=O)CSc2nnc(-c3cccnc3)n2-c2ccccc2F)c(C)n1CC1CCCO1 (centres unmarked),-1.34
22,CC(=O)NCc1cc(-c2ccc(Cl)cc2)no1,1.4
23,COCc1nc2ccccc2n1Cc1ccccc1Br,-9.83
24,N#C/C(=C\c1ccncc1)c1nc2c(s1)CCCC2,8.56
25,O=C(COc1ccc(S(=O)(=O)NC2CCCCC2)cc1Cl)N1CCN(c2ccccc2)CC1,-8.01
26,C[C@@]12C(=O)N(CC3CC3)CC(=O)N1[C@H](C1CC1)[C@@H]1C(=O)N(c3ccccc3)C(=O)[C@@H]12,-3.17
